# Results: the RNAGym collection of RNA variant scans (doi:10.1093/nar/gkz1192)
# The source gives no read counts; variants with many changes may rest on few reads.
# B1: CPEB3 Ribozyme (parent)
# chain: UAACAGGGGGCCACAGCAGAAGCGUUCACGUCGCAGCCCCUGUCAGAUUCUGGUGAAUCUGCGAAUUCUGCUGUAUAUCUC
# Variants of: B1
# Experiment: self-cleavage, relative activity (ratio to wild type); higher = more cleavage; in vitro, sequencing
# Procedure, shortened: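 Libraries of CPEB3 self-cleaving ribozyme mutants came from rounds of error-prone PCR and carried barcodes, which DNA sequencing matched to variants. In vitro transcription used T7 RNA polymerase at 37°C for 5 hours, with a further 15 min in DNase I before EDTA stopped the reaction; the ribozymes cleaved during both steps. The RNA was reverse transcribed with template switching and sequenced on Illumina. Relative activity is the cleaved/total read fraction of a variant divided by that of the unmutated ribozyme, averaged over three batches with at least 5 reads.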
row,Variant,self-cleavage
1,C39U U74C U78C,1.08
2,C40A A45C U48C,0.17
3,C40A A45G A65G,0.12
4,C40A A45G U67C,0.07
5,C40A A45U C62U,0.13
6,C40A A45U U49A,0.21
7,C40A A45U U69A U72C,0.18
8,C40A A45U U72A,0.33
9,C40A A47C U60G U69G,0.2
10,C40A A47G U66C,0.34
11,C40A A56G A75U,0.05
12,C40A A56U U67C G70C,0.12
13,C40A A64G U80C,0.18
14,C40A C50A G63A,0.09
15,C40A C50A U51A G63U,0.16
16,C40A G55A A56G,0.1
17,C40A G55A A57U,0.08
18,C40A U41A U48C,0.08
19,C40A U41A U54C U72C,0.26
20,C40A U41C A45C G61C,0.07
21,C40A U41C U60C U80C,0.15
22,C40A U43A A56U,0.12
23,C40A U43A A57G A64U,0.14
24,C40A U43C A45U U51A,0.16

row,Variant,self-cleavage
1,C40A U48A G63U U72A,0.12
2,C40A U48A U54G U80C,0.22
3,C40A U49C A77G,0.12
4,C40A U49C U76A,0.08
5,C40A U51C G61A U72C,0.25
6,C40A U54C A56C,0.12
7,C40G A45C C62G,0.15
8,C40G A64G A75U,0.31
9,C40G U41A A45U A47G U54A,0.06
10,C40G U41C A56G,0.21
11,C40G U41G A57G,0.35
12,C40G U43C U49A U66C,0.12
13,C40G U43C U67C U80C,0.18
14,C40G U60A A64U U66C U74C,0.14
15,C40G U60A U66C U74C,0.11
16,C40U A45C U60C U69C U74A A75G,0.07
17,C40U A45G A56U U72G,0.11
18,C40U A45G G46C A64U U72C,0.12
19,C40U A45G G53A,0.41
20,C40U A45G U78C,0.45
21,C40U A45U A57U U78A,0.05
22,C40U A45U U49A,0.15
23,C40U A45U U49C U67A U69A,0.09
24,C40U A47G A56G C62U A64U,0.08

row,Variant,self-cleavage
1,C40U A47G A75G U78C,0.35
2,C40U A47G U49C U67C,0.05
3,C40U A47G U54C A64G,0.16
4,C40U A47U A75G U80C,0.84
5,C40U A47U U60A,0.38
6,C40U A56G U58A U60C,0.19
7,C40U A56U U58C U72A,0.21
8,C40U A56U U78C,0.3
9,C40U A57G A64G U67C,0.05
10,C40U A57G A64U,0.2
11,C40U A57G U69A U72C,0.11
12,C40U A57G U72C,0.67
13,C40U A77G U78C,0.29
14,C40U C50A A64G A65G,0.12
15,C40U C50G A56G C68A,0
16,C40U C59U U76C,0.78
17,C40U G52A A65G U80C,0.12
18,C40U G55A A64U,0.12
19,C40U G55U U74C U80C,0.58
20,C40U U41A G61A,0.54
21,C40U U41A U54C,0.46
22,C40U U41A U78C,0.1
23,C40U U41C U49A,0.5
24,C40U U41C U49A U67C,0.31

row,Variant,self-cleavage
1,C40U U43C A57G U80A,0.17
2,C40U U43C A65U U72C,0.08
3,C40U U43C G46C,0.13
4,C40U U43G U54G,0.15
5,C40U U48C C62U,0.05
6,C40U U49A U76C,0.39
7,C40U U51A G61C A64G,0.17
8,C40U U51C A64G,0.5
9,C40U U51C A65U U78A,0.23
10,C40U U51G A57U,0.52
11,C40U U51G U60C U69C U74A,0.09
12,C40U U54A U58C,0.29
13,C40U U54A U69C,0.54
14,C40U U54A U78C,0.87
15,C40U U54C A56G,0.38
16,C40U U54C A56G A64U U74G U80C,0.13
17,C40U U58C U66A,0.14
18,C40U U58G U80C,0.22
19,C40U U60A C68U,0.51
20,C40U U60C U69C U74C A75G,0.35
21,C40U U67A U69G U80A,0.08
22,C40U U67C A77G,0.11
23,C40U U69A U74C,0.4
24,C40U U76A A77G,0.79

row,Variant,self-cleavage
1,U41A A45C A56U,0.19
2,U41A A45C U51A U76A,0.16
3,U41A A45G A47G,0.63
4,U41A A45G A47G U67C,0.11
5,U41A A45G A57G A65G,0.18
6,U41A A45G A57U U76C,0.12
7,U41A A45G A65G,0.4
8,U41A A45G A65G A75G,0.1
9,U41A A45G U48C A65G U66C U72C,0.21
10,U41A A45G U49A U51C A57G A65U,0.17
11,U41A A45G U49A U54C U74C A75U,0.22
12,U41A A45G U51A U74C U76A,0.35
13,U41A A45G U54A C59U,0.13
14,U41A A45G U54C A64U C81G,0.03
15,U41A A45G U54C U74A,0.23
16,U41A A45G U60A U72G,0.25
17,U41A A45G U60C U72C,0.35
18,U41A A45G U60C U72C A75U,0.36
19,U41A A45G U72G,0.12
20,U41A A45U A57G,0.21
21,U41A A45U U48C A56U,0.14
22,U41A A45U U51A A77G,0.1
23,U41A A45U U54C U58C U60A U69C,0.05
24,U41A A47C A56G,0.13

row,Variant,self-cleavage
1,U41A A47C G73U,0.37
2,U41A A47G C68G G73A C79A,0.23
3,U41A A47G U54A,0.25
4,U41A A47G U54C U74A C79A U80C,0.24
5,U41A A47G U54G U67C,0.11
6,U41A A47G U74G U78A,0.1
7,U41A A47U U60C U67G,0.14
8,U41A A56C A57U U66A,0.08
9,U41A A56G A57G G73A,0.36
10,U41A A56G U60C,0.06
11,U41A A56G U69C U78A,0.06
12,U41A A56U A57G G61A U76C U80C,0.07
13,U41A A56U U72A,0.13
14,U41A A56U U78C,0.2
15,U41A A57G A77U,0.16
16,U41A A57G U58C A77G,0.15
17,U41A A57G U60C U69A U80C,0.35
18,U41A A57G U60C U69G,0.25
19,U41A A57G U72A,0.17
20,U41A A57G U74A,0.81
21,U41A A57G U76A,0.14
22,U41A A57U U58G U69C U80C,0.1
23,U41A A64C A77U,0.15
24,U41A A64G A65G,0.16

row,Variant,self-cleavage
1,U41A A64G A65U U74C,0.05
2,U41A A64G C79A,0.15
3,U41A A64G U69A,0.16
4,U41A A64U G70C,0.16
5,U41A A64U U74C,0.41
6,U41A A65G A75G,0.09
7,U41A A65G U69A,0.09
8,U41A A65G U72C,0.16
9,U41A A77U U78A,0.21
10,U41A C44G C50A U58C U60A,0.14
11,U41A C44G C50G U58C U60A,0.15
12,U41A C44G U48C C50G U54A U58C U60A,0.13
13,U41A C50A U51C,0.06
14,U41A C50A U72A,0.1
15,U41A C50U A75G,0.13
16,U41A C50U G53A U58C A64U G70C U80A,0.09
17,U41A C59G U60A G63U,0.06
18,U41A C59U C71A U72C,0.08
19,U41A C62U U72C,0.36
20,U41A C62U U74C,0.13
21,U41A C68A U78C,0.34
22,U41A G42A A57G,0.22
23,U41A G42U A47G,0.24
